Reference: ChEMBL document CHEMBL4888484, “Replenishing the malaria drug discovery pipeline: Screening and hit evaluation of the MMV Hit Generation Library 1 (HGL1) against asexual blood stage Plasmodium falciparum ,using a nano luciferase reporter read-out” (2022)
Hit rate of the full screen: of about 150,000 compounds, about 540 (0.36%) showed an effect of 50% or more. The list shows a part of the results.

Tested on: Plasmodium falciparum
Test: Primary screen in NF54 nanoGlo assay, in single point, at 2uM, 72h; a lower Z score goes with more inhibition
Type: functional, Erythrocyte
Conditions: timepoint 72 hour

| Structure (SMILES) | % Inhibition [%] | Z score |
| --- | --- | --- |
| CNC(=O)Cn1cc(NC[C@@]2(C)C[C@@H]2c2ccccc2)cn1 | -5 | 0.8 |
| Cn1ncc(Cl)c1C(=O)N(C(=O)c1c(Cl)cnn1C)c1ccccc1C(F)(F)F | -10 | 1.39 |
| Cc1ccc(CCNC(=O)c2cncc(Br)c2)cn1 | -11 | 2.14 |
| CCc1nc2cc(C(=O)N(C)Cc3ccn[nH]3)cc(NC(=O)c3ccccc3OC)c2n1C | -2 | 0.22 |
| Cc1nccc(CNC(=O)[C@@H](CC2CCCCC2)C(C)C)n1 | -4 | 0.67 |
| C[C@@H](CN1CCOCC1)C(=O)NCc1ccc(-c2ncon2)cc1 | -9 | 1.56 |
| CC(C)(C)c1noc(CNC(=O)N2CCC[C@H]2C(N)=O)n1 | -9 | 1.44 |
| Cc1cccc(C)c1C(=O)NC1CC2(CCNC2)Oc2ccccc21 (stereo not drawn) | 4 | -0.38 |
| CC(=O)Nc1ccc(Oc2cccc3[nH]ccc23)nc1 | 35 | -3.94 |
| O=C(Nc1nc(-c2ccc(Oc3ccccc3)cc2)cs1)c1ccc(Cl)s1 | -13 | 2.26 |
| O=C(NCC1CCN(S(=O)(=O)c2ccc(Cl)s2)CC1)c1ccnnc1 | -3 | 0.43 |
| O=C(NC[C@H]1COCCO1)Nc1cccc(F)c1 | -12 | 1.67 |
| COCCNC(=O)Cn1c(=O)n(CCc2cccs2)c(=O)c2sccc21 | -2 | 0.23 |
| O=C1CC(Cc2ccc(C(=O)NC3CCN(c4ccccc4Cl)C3=O)cc2)C(=O)N1 (stereo not drawn) | -9 | 1.16 |
| OCC1CCN(CCCOCCc2ccccc2)CC1 | 12 | -1.5 |
| CCCCc1nc(CN2CCc3nocc3C2)c[nH]1 | -6 | 1.06 |
| O=C1CCCN1c1ccc(NCc2cnn(Cc3ccc(F)cc3)c2)nc1 | -10 | 1.39 |
| Cc1ccc(Oc2ccccc2CNC(=O)[C@@H]2CCC(=O)N2)cc1 | 31 | -4.53 |
| Cc1cccc(S(=O)(=O)Nc2ccc(-c3ccc4nncn4n3)cc2)c1 | -10 | 1.35 |
| C[C@H](NC(=O)Cc1ccccc1O)c1csc(C2CC2)n1 | 5 | -0.69 |
| Cc1cc(NCc2cnn(C)c2)nc2cc3c(cc12)CCC3 | -5 | 0.79 |
| O=C(Nc1cc(F)c(F)c(F)c1)c1cn(C[C@H](O)c2cccs2)nn1 | 4 | -0.76 |
| CCc1oc2c(NC(=O)[C@@H]3CC[C@H](N)C3)cc(Cl)cc2c1C | -12 | 2.19 |
| COc1ccc2cc(C(=O)NC(c3ccccn3)[C@H]3C[C@@H](O)C3)n(C)c2c1 (stereo partly drawn) | -7 | 1.02 |
| O=C(Nc1nc(-c2ccc3c(c2)OCCO3)cs1)c1cccc(S(=O)(=O)N2CCCCC2)c1 | 6 | -0.98 |
| CC(=O)N(Cc1ccc(NC(=O)NCC2CCOCC2)cc1)C(C)C | 3 | -0.48 |
| O=C(NCCc1nc2ccccc2[nH]1)[C@@H]1CNCCO1 | -12 | 1.38 |

| Structure (SMILES) | % Inhibition [%] | Z score |
| --- | --- | --- |
| O=C(NC1CC1)NC1C2CCC(C2)C1CO (stereo not drawn) | 1 | -0.09 |
| Cc1cc(Br)cnc1NC[C@H](O)c1ccco1 | -5 | 0.68 |
| C[C@H]1CCc2n[nH]c(C(=O)N(C)Cc3nc4ccccc4c(=O)[nH]3)c2C1 | -4 | 0.71 |
| CCCC(=O)NC[C@@H](CO)Cc1ccc(OC)c(Br)c1 | -3 | 0.58 |
| O=C(C1CCCCC1)N1CC(c2nc(-c3ccc4c(c3)CCC4)no2)C1 | -7 | 1.24 |
| O=C(O)c1cc(-n2ccnc2)nc2ccccc12 | -5 | 0.61 |
| CC1=NN(c2ccc(Cl)cc2)C(=O)C12Cc1cc(Br)ccc1N1CCN(c3ncccn3)CC12 (stereo not drawn) | 10 | -1.21 |
| C[C@H](NS(C)(=O)=O)c1nc(CC(N)=O)nn1-c1cccc2c1CCC2 | -16 | 2.04 |
| COC(=O)c1ccc(Cl)c(NC(=O)c2coc(C3CCC3)n2)c1C | 2 | -0.28 |
| CC1CCCC(NC(=O)Cn2cnnn2)C1 (stereo not drawn) | -1 | 0.13 |
| Cc1nn(-c2ccccc2)c2sc(-c3noc(C4CCCCC4)n3)cc12 | 20 | -2.33 |
| O=C(CCn1ccccc1=O)N1CCOc2c(F)ccc(F)c21 | -2 | 0.31 |
| CCOC1CC(N(C)C(=O)c2ccc(CN)cc2)C12CCCC2 (stereo not drawn) | 2 | -0.33 |
| CS(=O)(=O)NCCOc1ncc(Cl)cc1Cl | -4 | 0.58 |
| Nc1nc(N2CCN(C(=O)[C@H]3CC[C@@H](O)CC3)CC2)cc(=O)[nH]1 | -3 | 0.34 |
| CN1CCCC(N2C[C@@H]3CN(c4nc5ccccc5o4)C[C@]3(C)C2)C1=O (stereo partly drawn) | -2 | 0.34 |
| CC1CCC(N(CC(=O)NC(N)=O)C2CC2)CC1 (stereo not drawn) | 33 | -0.86 |
| O=C(Nc1ccc2c(c1)OCO2)Nc1nn(Cc2ccc(Cl)cc2Cl)cc1Cl | -10 | 1.38 |
| Nc1nccnc1C(=O)NCC1(c2c(F)cccc2F)CCCC1 | -7 | 1.21 |
| COc1cc(NC(C)=O)ccc1N[C@@H](C)c1cnn(C(C)C)c1 | 9 | -1 |
| Cc1ccc2ncc(CNc3nnc(C(F)F)s3)n2c1 | 5 | -0.92 |
| CCCn1ccc2cc(NS(=O)(=O)c3c(C)nn(C)c3Cl)ccc21 | -8 | 1.06 |
| Cc1nc(-c2ccc(C)c(-n3cc(C(=O)N4CCN(c5cc(Cl)ccc5C)CC4)c(C)n3)c2)no1 | -12 | 1.74 |
| COCc1cccc(C(=O)N2CCC[C@H]3CN(C)C[C@H]32)c1 | 0 | 0.04 |
| CCN(CC)C(=O)CS(=O)(=O)c1cncc(Br)c1 | -5 | 0.96 |
| COCc1nc(NCCN2CCNC2=O)c2cnn(C)c2n1 | -6 | 0.82 |
| C[C@H](O)CC(C)(C)CNC(=O)NCc1cc(C(F)(F)F)on1 | -3 | 0.45 |
